Reference: the RNAGym collection of RNA variant scans (doi:10.7554/elife.90254)
Read counts are not given, so values of variants with three or more changes are uncertain.

B1: LINE1-mini (parent)
chain: GGCAGAGCUCAACACAGCGUGGCAAAGUGGCUGUGGCUAGACUGCC

Variants of: B1
Test: self-cleavage, relative activity (ratio to wild type); higher = more cleavage; in vitro, sequencing; the parent is a self-cleaving ribozyme

Variant | self-cleavage
G33A A39G A41U C46U | 0.24
G35U A39U G40A | 0.09
G33A C37U A39G | 0.02
C31A A41C C42G | 0.04
G35C A39C C46A | 0.07
C31A U32A C46U | 0.02
G33C C37A C46A | 0
U34A G35A C45U | 0.05
C31A A39G C42A | 0.02
G33U U38A C42A | 0.29
G30A U34A G36A | 0.08
U34G G35A G36A C37G A41U G44U | 0.01
G30U C31G C42U | 0.08
C31U G40A A41C C45U | 0.01
G30A U32C C42U U43C | 0.39
U34G C42U C45U | 0.01
U34G C42U C45G | 0.03
C31U U34C C42U | 0.01
U32A G36A G40C | 0.08
C31A C42G C45U | 0.01
G33C A41C C42U | 0.04

Variant | self-cleavage
G30C C31G C45U | 0.07
C31A C45U C46G | 0.06
U34G G40U C42G U43A | 0.15
G33A G36A C46A | 0.06
U32A G35A A39G | 0.03
G30C U32G C37G C46A | 0.03
G35A G36U C45U | 0.08
G30U C31G C46U | 0.05
C31U G35U A41G | 0.03
C31U G35U G44C | 0.03
C31U G36A C42A | 0.12
U32G G35A G40C | 0.19
C31G C37U C46U | 0.05
G35C U38C A39G | 0.06
U34G C37G G44A | 0.02
U32A A39G C45A | 0.01
C31U G35A C45U | 0.03
U34A C37U A41G C42U | 0.03
C31U G36C C45A | 0.03
U34A G44A C46G | 0.01
U32C C45G C46A | 0.11

Variant | self-cleavage
G33U U34C G36U | 0.06
G30U G35C A39U | 0.03
G33U G36U U43A | 0.01
U34A C37U C42G | 0.03
U34C U43C C45A | 0.15
U34C C37A G40U | 0.03
U34C G35U A41U | 0.12
G30U C31A U38G | 0.02
G33A C42A G44U | 0.03
G33U C37G A41C | 0.03
G30A U38C C42G | 0.03
C31G A39C U43A C45A | 0.02
G35C C37G U38C C45G | 0.06
C31U G35A C46U | 0.02
G30C G33C C37G | 0.02
G30U A41U C42A | 0.02
U32A U34C C46A | 0.08
U34A G35U A39G | 0.15
G30C U34G U38A | 0.06
G35C G40U U43C | 0
G33C G40U C46A | 0.07

Variant | self-cleavage
C31U G33U U34G C45G | 0.03
G30C G35A U38C | 0.16
C31U C37U G44C | 0.04
G30U C31U A39C | 0.02
G30U C31A U38C G44U | 0.09
G33A U34A A39U G44U | 0.19
G33C G36U C42U | 0.05
U32A G36U C42A | 0.2
G33U U38A G40A | 0.08
G33U U38A G40C | 0.03
U32A A39G C46G | 0.03
G33A C37A U38A G40U | 0.03
G30C C42U G44U | 0.05
C31U U34G G40A | 0.01
G30U U32G U38G | 0.02
G30U U32G U38C | 0.02
C31G U34C C45A | 0.02
U34G U43A G44U | 0.17
G30U A39U C45A | 0.33
G30U G35U G36C G44A | 0.02
G30U A41G C46U | 0.02
